Results taken from the supplement of paper PMC4604168 (melanoma cell lines).
This is one part of the list. Most values come without repeats; read them as rough.

Each compound was assayed on WM1716 (assay: cell count relative to DMSO control; melanoma cells; higher = more viable cells). Settings: library dose: standard library concentration; 72 h.
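Also: cells treated in 1,536-well plates, then fixed and DAPI-stained, with nuclei counted from automated high-throughput microscope images.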

Question: Which cell count does the source give for `C[C@]12O[C@H](C[C@]1(O)CO)n1c3ccccc3c3c4c(c5c6ccccc6n2c5c31)CNC4=O` [Lestaurtinib] + O=C(Nc1cccc(Cl)c1)Nc1ncc(CCNc2ncnc3ccsc23)s1 [SNS314] (first compound 0.02 µM, partner dose 0.004 µM) here?
Answer: Its cell count is 45%.

Question: With `N.N.[Cl][Pt][Cl]` [cisplatin] + CO[C@H]1C[C@@H]2CC[C@@H](C)[C@@](O)(O2)C(=O)C(=O)N2CCCC[C@H]2C(=O)O[C@H]([C@H](C)C[C@@H]2CC[C@@H](OCCO)[C@H](OC)C2)CC(=O)[C@H](C)/C=C(\C)[C@@H](O)[C@@H](OC)C(=O)[C@H](C)C[C@H](C)/C=C/C=C/C=C/1C [everolimus] (first compound 8 µM, partner dose 0.1 µM) as the compound, how does the cell count read?
Answer: Its cell count is 84.1%.

Question: For `C[C@]12O[C@H](C[C@]1(O)CO)n1c3ccccc3c3c4c(c5c6ccccc6n2c5c31)CNC4=O` [Lestaurtinib] + NC(=O)Nc1cc(-c2cccc(F)c2)sc1C(=O)N[C@H]1CCCNC1 [AZD7762] (first compound 0.02 µM, partner dose 0.1 µM), which cell count is on record?
Answer: Its cell count is 78.8%.

Question: How did the cell count turn out when `C[As](C)SC[C@H](NC(=O)CC[C@H](N)C(=O)O)C(=O)NCC(=O)O` [Darinaparsin] + Oc1nc(-c2ccc(C(F)(F)F)cc2)nc2c1CSCC2 [XAV939] (first compound 2 µM, partner dose 10 µM) was run?
Answer: The cell count was 61.5%.

Question: For `C[As](C)SC[C@H](NC(=O)CC[C@H](N)C(=O)O)C(=O)NCC(=O)O` [Darinaparsin] + COc1ccc2c(c1)CCC1C2CCC2(C)C(NCCCCCCN3C(=O)C=CC3=O)CCC12 [U73122] (first compound 2 µM, partner dose 2 µM), which cell count is on record?
Answer: The cell count was 3.21%.

Question: `C[C@]12O[C@H](C[C@]1(O)CO)n1c3ccccc3c3c4c(c5c6ccccc6n2c5c31)CNC4=O` [Lestaurtinib] + O=C(O)c1ccc(-c2c[nH]c3ncc(-c4ccccc4)cc23)cc1C1CCCC1 [GSK650394] (first compound 0.02 µM, partner dose 0.8 µM) was tested. Which cell count did it give?
Answer: The cell count was 94.3%.

Question: With `Cn1cc(C2=C(c3cn(C4CCN(Cc5ccccn5)CC4)c4ccccc34)C(=O)NC2=O)c2ccccc21` [Enzastaurin] + C=C(c1ccc(C(=O)O)cc1)c1cc2c(cc1C)C(C)(C)CCC2(C)C [Bexarotene] (first compound 4 µM, partner dose 10 µM) as the compound, how does the cell count read?
Answer: The cell count was 61.6%.

Question: How did the cell count turn out when `N.N.[Cl][Pt][Cl]` [cisplatin] + CO[C@@H]1[C@H](N(C)C(=O)c2ccccc2)C[C@H]2O[C@]1(C)n1c3ccccc3c3c4c(c5c6ccccc6n2c5c31)C(=O)NC4 [Midostaurin] (first compound 8 µM, partner dose 0.4 µM) was run?
Answer: Its cell count is 40.4%.

Question: For `Cn1cc(C2=C(c3cn(C4CCN(Cc5ccccn5)CC4)c4ccccc34)C(=O)NC2=O)c2ccccc21` [Enzastaurin] + CNC(=O)c1cc(Oc2ccc(NC(=O)Nc3ccc(Cl)c(C(F)(F)F)c3)cc2)ccn1 [sorafenib] (first compound 4 µM, partner dose 2 µM), which cell count is on record?
Answer: The cell count was 68.6%.

Question: With `Cn1cc(C2=C(c3cn(C4CCN(Cc5ccccn5)CC4)c4ccccc34)C(=O)NC2=O)c2ccccc21` [Enzastaurin] + CC(C)C[C@H](NC(=O)[C@H](Cc1ccccc1)NC(=O)c1cnccn1)B(O)O [Bortezomib] (first compound 4 µM, partner dose 0.005 µM) as the compound, how does the cell count read?
Answer: Its cell count is 21.6%.

Question: Which cell count does the source give for `Cn1cc(C2=C(c3cn(C4CCN(Cc5ccccn5)CC4)c4ccccc34)C(=O)NC2=O)c2ccccc21` [Enzastaurin] + Cc1cc(Nc2cc(N3CCN(C)CC3)nc(/C=C/c3ccccc3)n2)n[nH]1 [ENMD2076] (first compound 4 µM, partner dose 0.2 µM) here?
Answer: The cell count was 71.4%.

Question: How did the cell count turn out when `C[As](C)SC[C@H](NC(=O)CC[C@H](N)C(=O)O)C(=O)NCC(=O)O` [Darinaparsin] + Cn1cc(/C=C2\C(=O)Nc3cccnc32)c2ccccc21 [GW441756] (first compound 2 µM, partner dose 2 µM) was run?
Answer: The cell count was 71.8%.

Question: With `C[As](C)SC[C@H](NC(=O)CC[C@H](N)C(=O)O)C(=O)NCC(=O)O` [Darinaparsin] + CC(C)(C)c1cnc(CSc2cnc(NC(=O)C3CCNCC3)s2)o1 [SNS-032] (first compound 2 µM, partner dose 0.05 µM) as the compound, how does the cell count read?
Answer: Its cell count is 39.4%.
